# Test results from publication PMC12136788.
# The other results are listed elsewhere or left out.
# B1: chr1:21217244:21217432:-|3pUTR|ENSG00000117298|msi1|total|mutant (ssRNA)
# RNA: GGGAGUUCUACAGUCCGACGAUCCCGCUCCAGAGCUUUAAGGAAAAUGAAGUGAGACCCCUCCCCUCCGGCCUGGGGAGCCACCGGGCUGGCUUCUCUGUGGGUGCGUGGACGUGGGGUUGGGAGCUGGGAAUCUAUUUUUUGCAACAGAGGAUUGAGCAUCA
# B2: chr9:14722165:14722672:-|CDS|ENSG00000147869|control|control|control (ssRNA)
# RNA: GGGAGUUCUACAGUCCGACGAUCAUCCAGGGACUCAGAUAGUGAGCCCUUCCCACCUGGGACCCAGUCCCUCAUCCAGCCGAUAGAUGGAAUGAAAAUGGAGAAAUCUCCUCUUCGGGAAGAAGCCAAGAAAUUCUGGCACCACAACAGAGGAUUGAGCAUCA
# B3: chr1:100520103:100520216:+|3pUTR|ENSG00000079335|unk|total|mutant (ssRNA)
# RNA: GGGAGUUCUACAGUCCGACGAUCUUACACAUGUGCCUACACCGACACACCAAGAAGUGGAUGUAUAUAAUACCGAAAGUAUACCGCAAAGUAAUUUUACUCUGAUAAUAAAAAUUGUUUGACAUGUAUUUUGUUAUGAACCGUCAACAGAGGAUUGAGCAUCA
# B4: chr2:73730642:73730743:-|CDS|ENSG00000144034|unk|FALSE|unique (ssRNA)
# RNA: GGGAGUUCUACAGUCCGACGAUCUUCAGACGUAGGAAACAAUGGUUAAUGAUCUUGUGUUUUUUUUUUCAUUUUUUUUCUCUUAGAUUUCAGAGGCUUUGAAAAAAUUUGGUAUCUCAGCAAAUGACACUUCAAUUCUAAUUGCAACAGAGGAUUGAGCAUCA
# B5: ENSG00000136451:be:win_2301|3pUTR|ENSG00000136451|bound_else_gene|NA|bound_elsewhere_windowed (ssRNA)
# RNA: GGGAGUUCUACAGUCCGACGAUCAAAAAUCUACAAAUUGUGUUUUGCUAAGAAAAGCCUCAACUGACAGAGGAGAAGUCAAGUGUGUGGACAGGCAAGCUCCUAAUAAACAGAGUCCAGUGGGAUUCCUAUUUAGGAGCCAAGCAACAGAGGAUUGAGCAUCA
# B6: chr4:68930545:68930765:-|CDS|ENSG00000135220|control|control|control (ssRNA)
# RNA: GGGAGUUCUACAGUCCGACGAUCUCCCAUAUUUGGUGAUCAGCUUGAUAACAUAGCUCACAUGAAGGCCAAAGGAGCAGCUGUAGAAAUAAACUUCAAAACUAUGACAAGCGAAGAUUUACUGAGGGCUUUGAGAACAGUCAUCAACAGAGGAUUGAGCAUCA
# Biological target: MSI1 full-length (mouse, UniProt Q61474 1-362)
# Assay: nsRBNS (natural sequence RNA bind-n-seq); RBNS binding buffer (assumed for nsRBNS): 25 mM Tris pH 7.5, 150 mM KCl, 3 mM MgCl2, 0.01% Triton X-100, 500 ug/ml BSA, 20 U/ml SUPERase-In, 4 C; UNK is unkempt and MSI1 is Musashi-1; names of the RNAs are library labels; protein concentration not given here; high values mean tight binding
# Sequence of UniProt Q61474 (Q61474 whole entry): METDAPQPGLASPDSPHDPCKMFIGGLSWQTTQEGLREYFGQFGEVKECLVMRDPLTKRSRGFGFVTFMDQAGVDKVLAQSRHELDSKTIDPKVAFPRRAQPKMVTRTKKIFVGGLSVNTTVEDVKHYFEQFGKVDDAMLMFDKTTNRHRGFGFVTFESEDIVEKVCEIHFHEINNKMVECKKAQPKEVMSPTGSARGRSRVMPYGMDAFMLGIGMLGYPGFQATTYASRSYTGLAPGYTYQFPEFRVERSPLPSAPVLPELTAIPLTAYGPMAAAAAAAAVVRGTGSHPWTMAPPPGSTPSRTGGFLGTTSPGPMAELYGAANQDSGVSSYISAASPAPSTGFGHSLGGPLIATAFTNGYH
row,Binder,binding signal [enrichment R]
1,B1,0.421
2,B2,1.14
3,B3,0.652
4,B4,0.897
5,B5,0.431
6,B6,0.57
